According to PubChem BioAssay AID686978 (National Center for Advancing Translational Sciences (NCATS), 2013):
The campaign covered roughly 420,000 compounds. About 64,000 (15%) were called active. Inconclusive means that the source gave no clear call. Such entries were picked first, then a sample of the others. The call rests on the fitted dose curve; in most records, active means well fitted inhibition curve with a large enough effect; inconclusive means small, poorly fitted or top-dose-only effect; inactive means flat fitted curve, though single readings scatter. Potencies of inconclusive entries are left out as doubtful fits.

Experiment: qHTS for Inhibitors of human tyrosyl-DNA phosphodiesterase 1 (TDP1): qHTS in cells in absence of CPT; further: nearly all actives have a fitted effect of over 55% in size
Conditions: DT40 Tdp1-/- hTDP1 cells, no CPT, ATP luminescence, 48 h; series mostly up to 46.2 µM
Outline: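 Chicken DT40 Tdp1-/- cells stably complemented with human TDP1 were seeded at 400 cells/well with DMSO in place of 20 nM camptothecin. After compound pinning, cells grew at least 48 hr at 37 °C; viability read by CellTiter-Glo luminescence.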
Potency means the concentration at half of the fitted maximal effect; tags describe the fitted curve by direction and shape.

| Compound | Potency |
| --- | --- |
| CCOc1cc(/C=C/C(=O)NCCc2ccc(S(N)(=O)=O)cc2)ccc1OCC(C)C | active: 8.2 µM |
| Cc1ccc(S(=O)(=O)N2CCC(C(=O)N3CCc4ccccc43)CC2)cc1 | inconclusive [inhibitor, single point] |
| COc1ccc(CNC(=O)c2cccc3c(-c4cnn(C)c4)coc23)cc1OC | inconclusive [inhibitor, single point] |
| O=C(Cc1ccc(S(=O)(=O)N2CCOCC2)s1)N(Cc1ccccc1)c1ccccc1 | active: 20.6 µM |
| Clc1cccc(-c2ccc3nccn3c2)c1Cl | inconclusive [inhibitor, single point] |
| O=C(c1cccs1)N1CCN(c2nc3ccccc3s2)CC1 | inconclusive [inhibitor, single point] |
| CCOC(=O)c1nn(-c2ccc(C)cc2)c(=O)cc1OCC(=O)Nc1ccc(OC)cc1 | inactive |
| Cc1nonc1C1CCCN1Cc1nc(-c2ccccc2Cl)oc1C (stereo not given) | active: 14.6 µM |
| C[C@@H](C(=O)Nc1ccc2ccccc2c1)[C@H]1C[C@]1(C)[C@H](NC(=O)c1cccnc1)c1ccccc1 | inconclusive [inhibitor, single point] |
| CN(c1ccc(C(=O)NC2CCCCC2)cc1)S(=O)(=O)c1ccccc1 | inconclusive [inhibitor, single point] |
| Clc1ccc(-n2ncc3c(NCc4cccs4)ncnc32)cc1 | inactive |
| COc1ccc(-c2ccc3[nH]c4c(c3c2)CCN2C(=O)[C@@H]([C@H](C)O)[C@@H](N(C)C(=O)Nc3ccc(F)cc3)C[C@@H]42)cc1 | active: 11.6 µM |
| CCC1CCCCN1c1nc2c(C=O)c(C)nn2c2ccccc12 (stereo not given) | active: 16.4 µM |
| O=C(NCCc1ccccc1)C(=O)NCC1CCCN1S(=O)(=O)c1ccccc1 (stereo not given) | active: 10.3 µM |
| Cc1ccc(CN(C)C(=O)COC(=O)CSc2cc(C)c3ccccc3n2)cc1 | inactive |
| O=C(N/N=C\c1ccc(-c2ccc([N+](=O)[O-])cc2)o1)C1COc2ccccc2O1 (stereo not given) | active: 23.1 µM |
| Cc1cc2oc(=O)cc(Cn3ncc(Cl)c(Cl)c3=O)c2cc1Cl | active: 3.26 µM |
| CCS(=O)(=O)N1CCN(C(=O)c2ccc(-c3ccccc3)cc2)CC1 | inconclusive [inhibitor, partial curve] |
| O=C(Nc1cccc(-c2nc3ccccc3[nH]2)c1)c1ccco1 | inconclusive [inhibitor, single point] |
| Cc1cc2c(cc1C)CSC(c1ccccc1OC(=O)C(C)(C)C)SC2 | inconclusive [inhibitor, single point] |
